# Where “and” joins values, the source holds several entries; their conditions need not be identical. Equal entries are not always repeated. About 64,000 (15%) of roughly 420,000 compounds were called active. The shares of active, inactive and inconclusive entries below differ from those in the screen. The call rests on the fitted dose curve; in most records, active means well fitted inhibition curve with a large enough effect; inconclusive means small, poorly fitted or top-dose-only effect; inactive means flat fitted curve, though single readings scatter. Potencies beside an inconclusive call are fits to weak or partial responses and may not hold up.
# Assay: qHTS for Inhibitors of human tyrosyl-DNA phosphodiesterase 1 (TDP1): qHTS in cells in absence of CPT; further: nearly all actives have a fitted effect of over 55% in size
# Conditions: DT40 Tdp1-/- hTDP1 cells, no CPT, ATP luminescence, 48 h; activity change, negative = growth inhibition: at 46.2 µM (top of the series)
# Summary of the method: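 Compound effects on proliferation are scored in DT40 Tdp1-/-;hTDP1 cells in the absence of CPT. ATP levels (CellTiter-Glo luminescence) are recorded after a ≥48 hr, 37 °C incubation.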
# On the % scale 0 is the no-effect control and ±100 the full control effect; potency means the concentration at half of the fitted maximal effect; tags describe the fitted curve by direction and shape.
Compound,Potency,"activity change, negative = growth inhibition"
Cc1nc2ccn(Cc3ccccc3)c(=O)c2cc1C(=O)NCc1ccccc1F,"inconclusive: 16.4 µM [inhibitor, single point]",
CC(C)(C)OC(=O)C1=C(CO)CS[C@@H]2[C@H](NC(=O)Cc3ccccc3)C(=O)N12,,inactive: -14%
Cc1ccc(OCc2n[nH]c(=S)n2-c2ccccc2)cc1C,"inconclusive: 29.1 µM [inhibitor, single point]",
CCN(CC)c1ccc(/C=C2\C=Cc3ccccc32)cc1,active: 17.8 µM,
COc1cccc(NC(=O)CN(C)C(=O)c2ccc3ccccc3c2)c1,,inactive: 1.63%
CN(C)CCCNCC(=O)Nc1ccccc1N1CCOCC1,,inactive: -4.99%
COc1cc(OC)cc(C(=O)N2CCN(C(=O)c3cccs3)CC2)c1,,inactive: 4%
COc1ccc(/C=C2\CCc3ccccc3C2=O)c(OC)c1OC,active: 20.6 µM,
O=c1cc(CN2CC(O)Cc3ccc4ccccc4c32)nc2sccn12 (stereo unspecified),"inconclusive: 29.1 µM [inhibitor, single point]",
CC(C)Oc1ccc(CNCCC2(C(C)C)CCOC(C)(C)C2)cc1 (stereo unspecified),"inconclusive: 20.6 µM [inhibitor, single point]",
COC(=O)[C@]1(Cc2ccccc2)N[C@H](CN(C)C(=O)COc2ccccc2)[C@@H]2C(=O)N(Cc3ccccc3)C(=O)[C@@H]21,"inconclusive: 23.1 µM [inhibitor, single point]",
CCC1(CC)NC(=O)N(CC(=O)OC(C)C(=O)Nc2ccccc2OC)C1=O (stereo unspecified),,inactive: -1.81%
N#Cc1ccccc1S(=O)(=O)N1CCN(C(=O)CN(Cc2ccco2)Cc2cccs2)CC1,active: 16.4 µM,
C=CC(=O)Nc1cccc(Oc2ncnc3[nH]cc(-c4cnc5ccccc5c4)c23)c1,"inconclusive: 23.1 µM [inhibitor, single point]",
COc1ccc(CCNCC(O)COc2c(C)cccc2C)cc1OC (stereo unspecified),"inconclusive: 23.1 µM [inhibitor, partial curve]",
CC1(C)CC(NC(=O)COc2ccc(Cl)cc2Cl)CC(C)(C)N1,,inactive: -12.9%
COc1ccc(CN(C)CCCn2cnc(C(=O)Nc3ccc(C)c(C)c3)n2)cc1OC,"inconclusive: 29.1 µM [inhibitor, single point]",
Cc1cccc([N+](=O)[O-])c1NC(=O)COC(=O)c1nc2nccc(C)n2n1,,inactive: 0.396%
CN(CC(=O)Nc1c(Cl)cccc1Cl)C(=O)c1ccccc1-c1nc2ccccc2s1,"inconclusive: 18.4 µM [inhibitor, single point]",
COc1ccc(Nc2nc(-c3sc(N)nc3C)cs2)cc1,"inconclusive: 29.1 µM [inhibitor, single point]",
O=C(NCCc1ccc(Cl)cc1)c1ccc2c(c1)N(Cc1ccccc1F)C(=O)c1ccccc1S2(=O)=O,"inconclusive: 13 µM [inhibitor, partial curve]",
O=C(Nc1sc2c(c1CN1CCOCC1)CCC2)c1ccc(F)cc1,"inconclusive: 29.1 µM [inhibitor, single point]",

Compound,Potency,"activity change, negative = growth inhibition"
O=C(Nc1nnc(C2=COCCO2)o1)c1ccc([N+](=O)[O-])cc1,"inconclusive: 23.1 µM [inhibitor, single point]",
CC(C)(C)OC(=O)N[C@@H](CC(=O)OCc1ccccc1)C(=O)O,"inconclusive: 23.1 µM [inhibitor, single point]",
Cc1cc(C)cc(NC(=O)N2CCCN(c3c(Cl)cncc3Cl)CC2)c1,,inconclusive: -35.8% [inhibitor]
CC1(C(=O)NS(=O)(=O)c2ccc(Cl)cc2)CCN1C(=O)c1cccc(F)c1 (stereo unspecified),,inactive: -5.19%
CCOC(=O)Cc1csc(/N=C/c2c(O)n(-c3ccc(C)c(C)c3)c(=O)c3ccccc23)n1,"inconclusive: 20.6 µM [inhibitor, single point]",
COC(=O)c1ccc(NC(=O)C2CCCN2S(=O)(=O)c2ccc(C)cc2)cc1 (stereo unspecified),"inconclusive: 25.9 µM [inhibitor, single point]",
O=C(NCCc1ccncc1)C12CC3CC(CC(C3)C1)C2,"inconclusive: 0.411 µM [inhibitor, full curve]",
CCCCc1nc2cc(C(=O)N(C)C3CCOCC3)ccc2o1,,inactive: -1.11%
C/C(Cl)=C\Cn1c(Nc2ccccc2)nc2c1c(=O)n(C)c(=O)n2C,"inconclusive: 25.1 µM [inhibitor, single point]",
O=C(c1cc2c(ccc3ccccc32)o1)N1CCN(c2ncc(C(F)(F)F)cc2Cl)CC1,"inconclusive: 35.5 µM [inhibitor, single point]",
CCCCC/C=C/C1=CC(=O)C[C@H](c2ccc(Cl)cc2)C1,,inactive: -26.2%
CN(CC(=O)Nc1c(Cl)cccc1Cl)C(=O)c1cccc(-n2cccc2)c1,,inactive: -16.8%
CCCCN1C(=O)C2Cc3c([nH]c4ccccc34)CN2C1=S (stereo unspecified),"inconclusive: 10.3 µM [inhibitor, partial curve]",
CC(C)=CCN1CCN(Cc2nc(-c3ccc(F)cc3)cs2)CC1CCO (stereo unspecified),"inconclusive: 5.17 µM [inhibitor, full curve]",
CC(C)C[C@H]1CN([C@@H](CC(C)C)CN2CCCC2CN2C(=S)NC[C@@H]2Cc2ccccc2)C(=S)N1CCc1ccccc1 (stereo partly specified),"inconclusive: 23.1 µM [inhibitor, single point]",
CCOc1ccc(NC(=O)Cn2c(=O)n(Cc3ccc(C(=O)NCc4ccc(C)cc4)cc3)c(=O)c3ccccc32)cc1,active: 14.6 µM,
CC(=NNC(=S)N1CCN(c2ccccn2)CC1)c1ccccn1,active: 16.4 µM,
N[C@@H](Cc1ccccc1)c1nnc(SCc2ccccc2Cl)o1,"inconclusive: 29.1 µM [inhibitor, single point]",
CCOc1ccc(NC(=O)Nc2cc(-c3ccccc3)sc2C(=O)OC)cc1,"inconclusive: 20.6 µM [inhibitor, single point]",
CC(=O)Nc1cccc(-c2ccnc3c2CC(C(=O)NCc2cccnc2)O3)c1 (stereo unspecified),"inconclusive: 18.4 µM [inhibitor, single point]",
COc1ccc(-c2cc(N)n(S(=O)(=O)c3ccc(F)cc3)n2)cc1OC,active: 11.6 µM,
Cn1c2nc3ccccc3c-2nc2ccccc21,active: 8.2 µM,

Compound,Potency,"activity change, negative = growth inhibition"
CCCCCCCNC(=O)C1(CC2CC(c3cccc(Br)c3)=NO2)CCN(C(=O)c2ccccc2)CC1 (stereo unspecified),"inconclusive: 16.4 µM [inhibitor, single point]",
COc1ccc(CN2C(=O)C(CC(=O)NC(c3ccccc3)c3ccccc3)CC(C(=O)N(C)C)=C2C)cc1 (stereo unspecified),"inconclusive: 7.31 µM [inhibitor, single point]",
CSc1ccc(/C=N\NC(=O)COc2ccc(Cl)cc2Br)cc1,"inconclusive: 35.5 µM [inhibitor, single point]",
COCc1c(C(=O)N2CCCCC2c2cccnc2)cnn1-c1ncc2c(n1)-c1ccccc1CCC2 (stereo unspecified),"inconclusive: 20.6 µM [inhibitor, single point]",
O=[N+]([O-])c1ccc2nc(NN=Cc3ccc(O)cc3)sc2c1,"inconclusive: 29.1 µM [inhibitor, partial curve, poor fit]",
CC(c1cccs1)N(Cc1ccco1)C(=S)Nc1ccc(F)c(Cl)c1 (stereo unspecified),,inactive: 19.9%
Cc1noc(C)c1S(=O)(=O)N(CC(=O)NCc1ccc(Cl)cc1)c1ccc2c(c1)OCO2,"inconclusive: 29.1 µM [inhibitor, single point]",
COc1cccc(CNC(=O)CN2C(=O)COc3ccc(S(=O)(=O)N4CCCCCC4)cc32)c1,"inconclusive: 16.4 µM [inhibitor, single point] and inconclusive: 29.1 µM [inhibitor, single point]",
COc1cccc(OCCOCCOc2ccc(C)cc2[N+](=O)[O-])c1,"inconclusive: 29.1 µM [inhibitor, single point]",
COc1ccc(OCC(=O)OCC(=O)Nc2ccc3[nH]c(=O)[nH]c3c2)cc1,,inactive: 8.96%
Cc1ccc(S(=O)(=O)NC2CC2)cc1,,inactive: -12.5%
CC(C)N(C)c1ncnc2c1ncn2[C@H]1CN(Cc2ccc(Cl)cc2)C[C@@H](CO)O1,"inconclusive: 7.31 µM [inhibitor, full curve, poor fit]",
C[C@@H]1CN([C@H](C)CO)C(=O)c2c(c3ccccc3n2C)-c2ccccc2CO[C@H]1CN(C)Cc1ccccc1,"inconclusive: 29.1 µM [inhibitor, single point]",
c1ccc(-n2nnnc2-c2cccnc2)cc1,"inconclusive: 23.1 µM [inhibitor, single point]",
CSc1nc(-c2ccc(Cl)cc2)c(C#N)c(=O)n1C,,inactive: -15.4%
Cc1ccc(-c2nc3ncccc3o2)cc1NC(=O)c1ccccc1Br,"inconclusive: 16.4 µM [inhibitor, partial curve]",
O=C(O)/C=C/C(=O)Nc1ccc(S(=O)(=O)N2CCCC2)cc1,"inconclusive: 6.51 µM [inhibitor, single point]",
O=C(Nc1nnc(C2CC2)s1)c1ccccn1,active: 16.4 µM,
CCOC(=O)c1c(NC(C)=O)sc2c1C1CCN2CC1,"inconclusive: 29.1 µM [inhibitor, single point]",
O=c1cc(-c2ccccc2)oc2ccccc12,"inconclusive: 43.3 µM [inhibitor, single point] and inconclusive: 29.1 µM [inhibitor, single point]",
O=C(CN1CCN(S(=O)(=O)c2ccc(Br)cc2)CC1)Nc1ccccc1C(=O)c1ccccc1,"inconclusive: 29.1 µM [inhibitor, single point]",
CCc1cccc(NC(=O)Cn2c(=O)n(CCC(=O)NCC3CCCO3)c(=O)c3cc(OC)c(OC)cc32)c1 (stereo unspecified),"inconclusive: 29.1 µM [inhibitor, single point]",
